Here are results for 8 molecules from PubChem BioAssay AID248 (DTP/NCI, 2004).

For this test, the system named is L1210 leukemia ip in BDF1 mice, survival T/C. Description: NCI In Vivo Anticancer Drug Screen. Data for tumor model L1210 Leukemia (intraperitoneal) in B6D2F1 (BDF1) mice. The settings on record: higher = longer survival.

Inconclusive results and toxic doses are left out. For part of its entries the source gives two or more results. This is not the full list of results. An entry can have further records. Results that share an entry are repeated measurements in other runs, samples, wells, individuals or studies. Brackets tell where a record comes from. Letters hold for one entry only. Counts like (3×) stand for listed records that agree.

Regarding `CCOC(=O)CCOc1ccccc1N(CCCl)CCCl`, the T/C (endpoint: mean survival time, dose: 5.8 mg/kg/injection, schedule: Q01DX Z (ip), vehicle: methylcellulose (MC)) is 110 % of control and 155 % of control.

Turning to `Nc1nc(N)[n+]([O-])c(N)c1NCO`, the T/C (endpoint: mean survival time, dose: 200.0 mg/kg/injection, schedule: Q01DX001 (ip), vehicle: other) was 98 % of control and 161 % of control.

Regarding `Cn1cnc([N+](=O)[O-])c1Sc1nc(N)nc2nc[nH]c12`, the T/C is, setting by setting: (endpoint: mean survival time, dose: 400.0 mg/kg/injection, schedule: Q01DX001 (ip), vehicle: saline) 124 % of control and 166 % of control; (endpoint: median survival time, dose: 5.0 mg/kg/injection, schedule: Q01DX009 (ip), vehicle: saline) 115 % of control and 168 % of control.

With `O=C(O)CCCc1ccc(N(CCCl)CCCl)cc1`, for the setting “endpoint: mean survival time, dose: 4.0 mg/kg/injection, schedule: Q08HX027 (ip), vehicle: acetone”, the T/C is 94 % of control and 165 % of control.

For the molecule `OCC1OC(n2cncn2)C(O)C1O` (configuration not stated), for the setting “endpoint: mean survival time, dose: 200.0 mg/kg/injection, schedule: Q01DX005 (ip), vehicle: saline”, the T/C is 110 % of control and 168 % of control.

As for `O=C1OC2CCCCC2/C1=C/N1CCCCC1` (configuration not stated), for the setting “endpoint: mean survival time, dose: 100.0 mg/kg/injection, schedule: Q04DX002 (ip), vehicle: Klucel (hydroxypropylcellulose) (HPC)”, the T/C is 88 % of control and 166 % of control.

Take `CC[C@]12CN3CCc4c([nH]c5ccccc45)[C@@](C(=O)OC)(c4cc5c(cc4OC)N(C)[C@H]4[C@@](O)(C(=O)OC)[C@H](OC(C)=O)[C@]6(CC)C=CCN7CC[C@]54[C@@H]76)CC(C3)[C@H]1O2` (some centres not stated): the T/C is, setting by setting: (endpoint: mean survival time, dose: 0.75 mg/kg/injection, schedule: Q01DX009 (ip), vehicle: saline) 169 % of control [sample A] and 106 % of control (2×) [sample B]; (endpoint: mean survival time, dose: 3.0 mg/kg/injection, schedule: Q01DX009 (ip), vehicle: saline) 168 % of control [sample A] and 111 % of control, 116 % of control [sample B]; (endpoint: mean survival time, dose: 6.0 mg/kg/injection, schedule: Q01DX009 (ip), vehicle: saline) 169 % of control [sample A] and 122 % of control (2×) [sample B].

Take `CN(N=O)C(=O)N[C@@H](C=O)[C@@H](O)[C@H](O)[C@H](O)CO`: the T/C runs as follows: (endpoint: mean survival time, dose: 25.0 mg/kg/injection, schedule: Q01DX009 (ip), vehicle: water) 115 % of control and 153 % of control; (endpoint: mean survival time, dose: 100.0 mg/kg/injection, schedule: Q01DX009 (ip), vehicle: water) 95 % of control and 171 % of control.
